# The list shows a part of the results.
# T1: UNK ZnF1-6 (called full-length) (human, UniProt Q9C0B0 30-357)
# T1 sequence: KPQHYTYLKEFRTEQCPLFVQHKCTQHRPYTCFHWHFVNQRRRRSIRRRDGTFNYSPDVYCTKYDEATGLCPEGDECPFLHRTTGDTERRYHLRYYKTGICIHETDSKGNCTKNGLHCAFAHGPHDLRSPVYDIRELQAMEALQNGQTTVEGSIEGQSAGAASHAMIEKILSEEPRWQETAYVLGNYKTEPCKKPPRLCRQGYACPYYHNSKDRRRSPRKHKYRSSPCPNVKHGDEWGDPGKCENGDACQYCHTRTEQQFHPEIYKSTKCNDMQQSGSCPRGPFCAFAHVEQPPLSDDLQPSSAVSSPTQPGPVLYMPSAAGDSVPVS
# B1: chr12:96943601:96943709:+|CDS|ENSG00000139350|unk|FALSE|unique (ssRNA)
# RNA: GGGAGUUCUACAGUCCGACGAUCAACUCAGUGUUUCCUCCAAGAAAAAAUCCAGUAACUUCAAGUACUUCAGUAUUGCAUUCUAGUCCUCUUAAUGUUUUUAUGGGAUCUCCAGGGAAAGAGGAAAAUGAAAACCGUGAUCUACAACAGAGGAUUGAGCAUCA
# B2: chr1:108699644:108699745:+|CDS|ENSG00000134186|unk|FALSE|bound_elsewhere (ssRNA)
# RNA: GGGAGUUCUACAGUCCGACGAUCGAUUCCAAGAAAGAGAAAAAACACAGUAGAAGCAGAAGCAGAGAAAGGAAACACAGAAGUAGGAGUCGAAGUAGAAAUGCAGGGAAACGAAGUAGAAGUAGAAGCAAAGAGAAAUCAAGUCAACAGAGGAUUGAGCAUCA
# B3: ENSG00000173068:stop:overlap|stop_codon|ENSG00000173068|stop_codon|NA|stop_codon (ssRNA)
# RNA: GGGAGUUCUACAGUCCGACGAUCGAAAUCGGCACAGUCAGAACCCUAAUCUCCACAAAAACAUUCCCUUCACUUCAGUAGAUUAGUCUCAGAAUGGACACUACAAAUGCCAGCUCUCACCAGAUGGCCUACGUGUUUGAACUGCAACAGAGGAUUGAGCAUCA
# B4: chr8:78602526:78602623:+|3pUTR|ENSG00000171033|msi1_unk|FALSE|overlapping (ssRNA)
# RNA: GGGAGUUCUACAGUCCGACGAUCUUGUAUGUUGAUGAGUUGAUUAAGUCUAACAGAUUCAUCAAGACUCCAUUGCUUUAUUAUAGAGACAUUUGAAAAUAUCCAUUAAUGUGAAUAUCACCUGAAUUCAGUCUGUUUGGUGUCCAACAGAGGAUUGAGCAUCA
# B5: chr3:138945594:138946722:-|CDS|ENSG00000183770|control|control|control (ssRNA)
# RNA: GGGAGUUCUACAGUCCGACGAUCCCCGGCCGCCUCGUACGGGCCGUACACACGCGUGCAGAGCAUGGCGCUGCCCCCCGGCGUAGUGAACUCGUACAAUGGCCUGGGAGGCCCGCCGGCCGCACCCCCGCCUCCGCCGCACCCCAACAGAGGAUUGAGCAUCA
# B6: chr16:56943551:56943652:+|3pUTR|ENSG00000051108|msi1|FALSE|unique (ssRNA)
# RNA: GGGAGUUCUACAGUCCGACGAUCUGCAUGUCUAUGCUUGAGGAACUUUUCCAAAUGUGUGUGUCUGCAUGUGUGUUUGUACAUAGAAGUCAUAGAUGCAGAAGUGGUUCUGCUGGUACGAUUUGAUUCCUGUUGGAAUGUUUACAACAGAGGAUUGAGCAUCA
# B7: chr8:58579689:58579790:+|CDS|ENSG00000137575|msi1|total|mutant (ssRNA)
# RNA: GGGAGUUCUACAGUCCGACGAUCAGCACUGGACAUGUUGGUUUUAUCUUUAAAAAUGGAAAAAUAACAUCCACCGUGAAAGACCGCUCUGCAGCCAGAAAUGGUCUUCUCACGGAACAUAACAUCUGUGAAAUCAAUGGACAGCAACAGAGGAUUGAGCAUCA
# B8: chr12:6238009:6238110:+|3pUTR|ENSG00000010278|msi1_unk|total|mutant (ssRNA)
# RNA: GGGAGUUCUACAGUCCGACGAUCAUAAAAGCUGAAGUUACUUUAUGUUUGUCUUUUAAUGCUUCAUUCAAUAUUGACAUUUGCCGUUGAGCGGGGGGUUUGGUUUGCUUUGGUUUAUAUUUUUUCAGUUGUUUGUUUUUGCUUCAACAGAGGAUUGAGCAUCA
# B9: chr14:94062441:94062542:-|CDS|ENSG00000089737|msi1|FALSE|unique (ssRNA)
# RNA: GGGAGUUCUACAGUCCGACGAUCCCUCCAAGUAACACCGAAGCACCACCUGGAGAGACCAGAACUGAGGCCGGAGCUGAGACUAGAUCACCAGGCAAGGCUGAAGCUGAGUCUGAUGCAUUGCCUGACGAUACUGUAAUUGAGCAACAGAGGAUUGAGCAUCA
# B10: chr7:88283957:88284065:-|CDS|ENSG00000127954|unk|FALSE|unique (ssRNA)
# RNA: GGGAGUUCUACAGUCCGACGAUCCAGUGGUGCAGAAGUCUUGAGCUAUUCAGAAGCAGCCAAGAAGUCUGGCAUCAUAAUCAUAGCAAUCCACAGAGAGCAUUAUGAUUUUCUCACAGAAUUAACUGAGGUUCUCAAUGGAAACAACAGAGGAUUGAGCAUCA
# B11: chr1:24839915:24840022:+|CDS|ENSG00000169504|unk|FALSE|bound_elsewhere (ssRNA)
# RNA: GGGAGUUCUACAGUCCGACGAUCACCCUGCAGAAACUGGAUGAAUAUCUGAAUUCUCCUCUCCCUGAUGAAAUUGAUGAAAAUAGUAUGGAGGACAUAAAGUUUUCUACACGUAAAUUUCUGGAUGGCAAUGAAAUGACAUUACAACAGAGGAUUGAGCAUCA
# B12: chr17:82614561:82616025:-|three_prime_utr|ENSG00000141580|control|control|control (ssRNA)
# RNA: GGGAGUUCUACAGUCCGACGAUCCUACAAAUUCCUGUUCAACCCCAAGGGGGAGUGCAUCCGAGAUGUCUACGCGCAGUUUCUAGAGAUGACCGAUGACAAGCUGUGACUCCAGCUGGGGGCGCCACAGCACCCACCACCUGCCAACAGAGGAUUGAGCAUCA
# B13: chr10:123166816:123166917:+|3pUTR|ENSG00000154473|unk|total|mutant (ssRNA)
# RNA: GGGAGUUCUACAGUCCGACGAUCAAAAACUUAAAGGUAUAUCCGCAGGUCCGCCUUUGUUCUGUGGGAGAUCCAGGCCUUGUCCGAAGGACCAAGGCCAGAAUGCCCAGUUCCGCCUCCGCAUUCAAACCCUUCAUUGUUUUUCAACAGAGGAUUGAGCAUCA
# B14: chr5:115137525:115137627:-|CDS|ENSG00000152503|unk|total|mutant (ssRNA)
# RNA: GGGAGUUCUACAGUCCGACGAUCUUCCGCAGAAGAGGCUAUUCUUUGUUUUAUCUCCGUGUAAUGGAGAUACUGUUUUUUCUCCGUGUAAUGGAGAGAGGGCUAAAGAAGAAGCAAUUACACAUUUUGAAAAGCUCUUUGAAGCAACAGAGGAUUGAGCAUCA
# B15: ENSG00000075856:stop:overlap|stop_codon|ENSG00000075856|stop_codon|NA|stop_codon (ssRNA)
# RNA: GGGAGUUCUACAGUCCGACGAUCGCAGCGGGCAUCUUCCAGUCUUUCAGGUCCUCGGGUCCCCAUGUCCUGGCCCGCCUCCCUAGUCCUCGGCGGCGAUAAAGCCGCCAAGGCUGCAAACCCGCUUUUCGUGACAGUAGCUCCCAACAGAGGAUUGAGCAUCA
# B16: chr12:52170242:52170446:-|3pUTR|ENSG00000167767|msi1|FALSE|unique (ssRNA)
# RNA: GGGAGUUCUACAGUCCGACGAUCUGGCCCUCCCCUCCUUGGCAUUCAUGGGGGAGCCCAGGAACCCCCCACACCUAUGGGGUUAGAGCUCCUCCUUUCUUCUCACUCCUUCCCCUUCCUCCCUCCAUGCCCACUCCCCCUGCCCAACAGAGGAUUGAGCAUCA
# B17: chr16:3727831:3727932:-|CDS|ENSG00000005339|unk|total|mutant (ssRNA)
# RNA: GGGAGUUCUACAGUCCGACGAUCCGUCUCACCCCAGACUGGUUCCCCCCACCCCGGACUCGCAGUCACCAUGGCCAGCUCCACCGAUCAGGGACACUUGGGGAACCCCGAACAGAGUGCAAUGCUCCCCCAGCUGAACACCCCCAACAGAGGAUUGAGCAUCA
# B18: ENSG00000107863:be:win_2851|CDS|ENSG00000107863|bound_else_gene|NA|bound_elsewhere_windowed (ssRNA)
# RNA: GGGAGUUCUACAGUCCGACGAUCGUUGGUGGAAGUAUUCGGCCAUGGAAACAGAUGUAUGUUGUCCUUCGGGGUCAUUCACUUUACCUGUACAAAGAUAAAAGAGAGCAGACGACUCCGUCUGAGGAAGAGCAGCCCAUCAGUCAACAGAGGAUUGAGCAUCA
# B19: ENSG00000107863:be:win_5751|CDS|ENSG00000107863|bound_else_gene|NA|bound_elsewhere_windowed (ssRNA)
# RNA: GGGAGUUCUACAGUCCGACGAUCACCUGACCAAAUAAACGGAGAAAGCUUCCAGAACGUGAGCAAAAAUGCUAGUUCUGCAGCGAAUGCCCAACCUCAUAAACUGUCUGAAACCCCAGGCAGUAAAGCAGAGUUUCAUCCCUGCAACAGAGGAUUGAGCAUCA
# B20: chr11:123942869:123943838:-|CDS|ENSG00000181499|control|control|control (ssRNA)
# RNA: GGGAGUUCUACAGUCCGACGAUCCCGCUAUGAGACCCUGAUGAAUGGCCAUGUCUGUUCCCAACUAGUGCUGGCCUCCUGGCUAGCUGGAUUCCUCUGGGUCCUUUGCCCCACUGUCCUCAUGGCCAGCCUGCCUUUCUGUGGCAACAGAGGAUUGAGCAUCA
# B21: chr6:52498635:52498743:-|3pUTR|ENSG00000065308|msi1|total|mutant (ssRNA)
# RNA: GGGAGUUCUACAGUCCGACGAUCAAAGGGACACGGAUUGUGACAGUUUCACCCCAUUUGUUUCUAACCCCGCUGCCCAGGAUCCGGGUCUGUGGUGUGUUCUGUUUUGUUUUUGGUUUCUCCCUUGUGUCAGUUCUCUUCUGGCAACAGAGGAUUGAGCAUCA
# B22: ENSG00000101574:stop:overlap|stop_codon|ENSG00000101574|stop_codon|NA|stop_codon (ssRNA)
# RNA: GGGAGUUCUACAGUCCGACGAUCAUCAAGCCAGAUGGGGAAUAUUUGGAGUUGUUUGCUCGAAAUUUACAGCCAGGUUGGACUAGUUGGGGCAAUGAAGUUCUCAAAUUUCAGCAUGUGGAUUAUUUUAUUGCUGUGGAGUCUCAACAGAGGAUUGAGCAUCA
# Biological target: T1, UNK ZnF1-6 (called full-length)
# Assay: nsRBNS (natural sequence RNA bind-n-seq); RBNS binding buffer (assumed for nsRBNS): 25 mM Tris pH 7.5, 150 mM KCl, 3 mM MgCl2, 0.01% Triton X-100, 500 ug/ml BSA, 20 U/ml SUPERase-In, 4 C; UNK is unkempt and MSI1 is Musashi-1; names of the RNAs are library labels; protein concentration not given here; high values mean tight binding
row,Binder,binding signal [enrichment R]
1,B1,0.588
2,B2,1.2
3,B3,0.981
4,B4,1.06
5,B5,0.774
6,B6,0.257
7,B7,0.566
8,B8,1.77
9,B9,0.576
10,B10,0.402
11,B11,0.33
12,B12,0.928
13,B13,0.411
14,B14,0.327
15,B15,0.352
16,B16,1.03
17,B17,0.845
18,B18,0.615
19,B19,0.358
20,B20,0.827
21,B21,0.669
22,B22,0.419

# From paper PMC12136788
